The campaign covered roughly 200,000 compounds. About 4,500 (2.2%) were called active. Inconclusive means that the source gave no clear call. Such entries were picked first, then a sample of the others. The call rests on the fitted dose curve; in most records, active means well fitted inhibition curve with a large enough effect; inconclusive means small, poorly fitted or top-dose-only effect, or effect the other way; inactive means flat fitted curve, though single readings scatter. Where the call is inconclusive, the potency comes from a doubtful curve fit.
biological target: Cruzipain (Trypanosoma cruzi) (UniProt P25779); assay: qHTS Assay for Promiscuous and Specific Inhibitors of Cruzain (without detergent); conditions: purified cruzain, Z-FR-AMC fluorescence, no detergent; further: nearly all actives have a fitted effect of over 40% in size
UniProt P25779, sequence (P25779 whole entry, looked up): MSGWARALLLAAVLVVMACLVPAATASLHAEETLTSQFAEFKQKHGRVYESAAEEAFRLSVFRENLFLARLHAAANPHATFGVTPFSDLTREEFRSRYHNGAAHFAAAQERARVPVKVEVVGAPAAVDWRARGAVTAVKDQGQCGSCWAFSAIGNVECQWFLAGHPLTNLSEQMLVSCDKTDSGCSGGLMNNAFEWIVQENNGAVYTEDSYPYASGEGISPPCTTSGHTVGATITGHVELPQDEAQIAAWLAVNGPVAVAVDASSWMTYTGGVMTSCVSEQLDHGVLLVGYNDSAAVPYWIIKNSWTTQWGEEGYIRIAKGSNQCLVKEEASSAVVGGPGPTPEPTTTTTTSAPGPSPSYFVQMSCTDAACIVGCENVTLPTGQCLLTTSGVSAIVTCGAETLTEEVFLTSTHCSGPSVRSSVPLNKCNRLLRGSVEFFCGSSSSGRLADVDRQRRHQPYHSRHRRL
Method: Cruzain is a cysteine protease from the tropical parasite Trypanosoma cruzi. Dual qHTS experiment was performed against the NCGC compound collection in order to 1) identify novel inhibitors of the enzyme and 2) profile the compound collection for promiscuous inhibitors operating via colloidal aggregation (by performing detergent-free and detergent-containing comparison screens). Cruzain was assayed by the use of fluorogenic coumarin-based substrate Z-FR-AMC: proteolytic cleavage releases AMC, whose fluorescence is measured at 360 nm excitation and 450 nm emission. Purified cruzain was supplied by the labs of Prof. James McKerrow and Brian Shoichet, UC San Francisco.
This assay had 0.00005% Triton X-100 concentration. See also releated assay "qHTS Assay for Promiscuous and Specific Inhibitors of Cruzain (with detergent)" with 0.01% Triton X-100.
See following references for additional details:
Assay Provider: Shoichet, Brian; University of California, San Fancisco
Screening Center PI: Austin, C.P.
Screening Center: NIH Chemical Genomics Center [NCGC]
Buffer: 100 mM Sodium Acetate, pH 5.5, 5 mM DTT, Triton X-100 concentration: 0.01%.
Buffer in columns 3 and 4 as negative control (no enzyme).
Substrate solution: 2 uM final concentration of Z-FR-AMC (catalog number I-1160, Bachem) dispensed throughout the plate.
Enzyme: 1.5 nM Cruzain final concentration in columns 1, 2, 5-48. Column 1 is neutral (100% activity). Column 2 contained titration of covalent inhibitor K11777, starting concentration 1 mM, then 1:2 dilution in duplicate).
Three uL of enzyme or buffer were dispensed to 1536-well Greiner black solid bottom plates. Compounds and controls (23 nL) were transferred via Kalypsys PinTool. The plates were incubated for 15 min at room temperature, and then 1 uL of substrate solution was added to start the reaction. The plates were immediately transferred to and read 4 times every 30 seconds for 2 min on ViewLux High-throughput CCD imager (Perkin-Elmer) using 360 nm excitation and 450 nm emission fluorescence protocol. The fluorescence intensity difference between the third and the first time points (time lapse of 60 seconds) was used to compute reaction progress.
Potency means the concentration at half of the fitted maximal effect; tags describe the fitted curve by direction and shape.

| SMILES | Potency | max response, negative = inhibition |
| --- | --- | --- |
| Cc1nnc(SCC(=O)Nc2cc(-c3cc(C)c(C)cc3C)nn2-c2ccccc2)s1 | inconclusive: 39.8 µM [activator, single point] |  |
| COc1ccc(-c2nn(C)c3sc(C(=O)Nc4cccc(F)c4)cc23)cc1OC | inconclusive: 3.98 µM [activator, single point] |  |
| C=CCOC(=O)N[C@H](/C(C(=O)OC)=C(\C)NCc1ccccc1)c1ccc(C)cc1 |  | inactive: -5.25% |
| CCCNC(=O)c1cc(-c2ccc(Br)cc2)on1 | inconclusive: 39.8 µM [inhibitor, single point] |  |
| CCC(CC)c1nnc(NC(=O)c2cccc(S(=O)(=O)N3CCc4ccccc43)c2)s1 | inconclusive: 20 µM [inhibitor, single point] |  |
| Cc1cc2oc(=O)cc(-c3ccccc3)c2c(C)c1-c1ccc(O)cc1 | inconclusive: 31.6 µM [inhibitor, single point] |  |
| CCC1CN(C(=O)N2CCC(C(=O)NCc3ccc(OC)cc3OC)CC2)c2cc(C)ccc2O1 (configuration not stated) | inconclusive: 39.8 µM [activator, single point] |  |
| O=C(NN1CCOCC1)c1cc(-c2ccc(Br)cc2)nc2ccccc12 | inconclusive: 39.8 µM [activator, single point] |  |
| Cc1ccc(OCc2nnc(SCC(=O)N3c4ccccc4Sc4ccc(Cl)cc43)o2)cc1 | inconclusive: 39.8 µM [inhibitor, single point] |  |
| Cc1cccc(NC(=S)NC(NC(=O)OCc2ccccc2)C(Cl)(Cl)Cl)c1 (configuration not stated) | inconclusive: 39.8 µM [inhibitor, single point] |  |
| Cc1ccc(-n2nc3c(N4CCC(C(=O)NC(C)C)CC4)nnc(C)c3c2C)cc1 |  | inactive: 0.711% |
| C=CCn1cnc2c(c1=O)c1nc3ccccc3nc1n2/N=C/c1ccccn1 | inconclusive: 39.8 µM [activator, single point] |  |
| Cn1c(SCc2ccc(F)cc2)nc2ccc(C(=O)NCc3ccc(F)cc3)cc21 |  | inactive: -5.09% |
| CC(=O)NS(=O)(=O)c1ccc(NC(=O)COc2ccc(C(=O)c3ccccc3)cc2)cc1 | inconclusive: 39.8 µM [activator, single point] |  |
| Cc1cccc(-n2c(SCC(N)=O)nc3c(oc4ccccc43)c2=O)c1 |  | inactive: -3.27% |
| O=C(Nc1ccccc1)c1cccc2c(=O)c3c([nH]c12)CCCC3 | inconclusive: 39.8 µM [activator, single point] |  |
| CCOC(=O)N1CCN(C(=O)CN(c2cccc(Cl)c2C)S(=O)(=O)c2ccc(C)cc2)CC1 | inconclusive: 5.01 µM [activator, single point] |  |

— PubChem BioAssay AID1476 (National Center for Advancing Translational Sciences (NCATS), 2009)
